# Results: ChEMBL document CHEMBL4888484, “Replenishing the malaria drug discovery pipeline: Screening and hit evaluation of the MMV Hit Generation Library 1 (HGL1) against asexual blood stage Plasmodium falciparum ,using a nano luciferase reporter read-out” (2022)
# Among all 150,000 compounds or so, about 540 (0.36%) showed an effect of 50% or more. The list shows a part of the results.
# Test system: Plasmodium falciparum
# Assay: Primary screen in NF54 nanoGlo assay, in single point, at 2uM, 72h; a lower Z score goes with more inhibition
# Format: functional, Erythrocyte
# Settings: timepoint 72 hour
Structure (SMILES),% Inhibition [%],Z score
O=C(Nc1ccc2[nH]ccc2c1)c1c[nH]c2cccnc12,2,-0.32
CC(C)c1cc(CN(C)C(=O)[C@@H]2CCC(=O)NC(=O)N2)on1,6,-1.24
COC[C@@H](c1ccnn1C)n1cc(-c2ccc3c(c2)OCCO3)nn1,-10,1.56
O=C(c1cc(=O)[nH]c2ccccc12)N1C[C@@H]2C[C@H]1CN2Cc1ccccc1,-7,1.08
O=C(NC1CCC(O)CC1)N[C@@H](Cc1ccccc1)c1cccs1 (stereo partly specified),-13,1.95
Cc1nn(-c2cccc(F)c2)c(N2CCN(C)CC2)c1CN(CCC(C)C)C(=O)COCc1ccccc1,9,-0.76
Cc1n[nH]c([C@@H]2CN(Cc3c(C)noc3C)CCO2)n1,-6,0.56
COc1cc(C)sc1C(=O)NCC[C@H]1CCCO1,-1,0.13
Cc1ccc(CN2c3ccc(F)cc3OC[C@@H]2CC(=O)Nc2ccc(C)c(C)c2)cc1,-2,0.34
O=C(NCc1ccc(F)cc1)c1noc(Cc2ccccc2)n1,-12,1.45
CC(=O)N1C(=O)C[C@H](C)N(C(C)=O)c2ccccc21,-10,1.11
FC(F)Oc1cncc(-c2cnc(C3CCOCC3)o2)c1,2,-0.43
Cc1ccc(Cl)cc1C(=O)N1C[C@@H](CN2CCCN(C)CC2)[C@@H](CO)C1,-2,0.18
Cc1cccc2c1[C@H](NC(=O)C(C)(C)NC(=O)c1cccs1)C(=O)N2,9,-1.05
Cn1cccc1C(=O)N[C@@H](Cc1ccccc1)C(=O)N1CCCOCCNC(=O)CC1,-16,2.05
O=C(Nc1cnccn1)c1cc(-c2cccc(Br)c2)nc2c(Cl)cccc12,6,-0.81
CCOCCCNC(=O)N1C[C@H](c2nc(C)no2)C2(CCOCC2)C1,-4,0.83
N[C@H]1CCN2C(=O)c3cc(-c4ccc(F)cc4F)ccc3NC(=O)[C@@H]2C1,29,-3.28
Cc1nc(NC(=O)[C@@H]2CC(c3ccc(Cl)cc3Cl)=NO2)n[nH]1,-3,0.43
CCCn1ncnc1COc1ccc(Br)cc1F,-30,3.5
CC(C)(O)Cn1ncnc1-c1cccn1C1CC1,-5,0.74
CCOC(C)(C)C(=O)NCCc1nccn1C,4,-0.88

Structure (SMILES),% Inhibition [%],Z score
Cc1ccc(-c2nocc2CCC(=O)O)cc1,-33,2.89
Cc1nc(C)c(C(=O)N2CC3(C[C@H](N4CCN(C)CC4)CO3)C2)s1,-10,1.54
O=C1CCCN1CC(=O)N1C[C@H](COCc2ccncc2)C2(CCOCC2)C1,-5,0.6
CC1CCC(N(C)C(=O)C2=NN(C)C(=O)CC2)CC1 (stereo unspecified),-7,0.63
Cc1ccc(NC(=O)NC2CCN(C)C2c2ccccc2)c(C)n1 (stereo unspecified),-8,1.02
O[C@H](COc1cccc2ccccc12)CN1CCN(c2ccccc2)CC1,-8,1.08
O=C(Nc1cccc(N2CCCCCC2)c1)N1CCC[C@H]1CO,5,-0.61
C#CCN1CCN(CC(=O)Nc2sc(C)c(C)c2C)CC1,-15,1.34
Cc1ccn2c(Nc3ccc4c(c3)OCCO4)c(-c3cccs3)nc2c1,-4,0.66
CC(=O)N(C)CCc1noc(C2CN(Cc3ccncc3F)C2)n1,5,-0.66
C[C@@H](CNC(=O)c1ccc(Cl)o1)N1CCOCC1,0,0.02
O=C(N1CCN(Cc2ccccc2)CC1)[C@@]1(CCO)CC12CCOCC2,5,-0.92
COC(=O)[C@H](C)NC(=O)Nc1ccccc1Cl,5,-0.77
O=C1c2ccccc2CS(=O)(=O)N1Cc1ccc(Cl)cn1,-3,0.33
O=C(COc1ccccc1Cl)Nc1cccc(Cl)c1N1CCCC1,12,-1.52
Cc1nn(CCC#N)c(C)c1Br,-21,2.75
CC[C@H]1CCCCN1C(=O)c1ccc(-n2nc(-c3nnc(C)o3)c(C)c2-c2ccc(OC)cc2)cc1,16,-2.14
Cc1cc2c(N3CCC[C@H](NS(C)(=O)=O)C3)nccc2o1,10,-1.46
CCn1nc(C)c(CN2CCc3c(c(C(=O)NCc4nccs4)nn3Cc3ccccc3)C2)c1C,-10,1.19
CCn1c(NC(=O)[C@@H]2CCCC(=O)N2C)nc2cc(Cl)ccc21,-6,0.7
Cc1nn(Cc2ccccc2)c2nc(C3CC3)cc(C(=O)N3CCCCCC3)c12,6,-0.93
